About 7,500 (2.1%) of roughly 360,000 compounds were called active. Inconclusive means that the source gave no clear call. Such entries were picked first, then a sample of the others. Calls come from the whole dose curve; as a rule, active = well fitted cell-killing curve with a large enough effect; inconclusive = small, poorly fitted or top-dose-only effect, or effect the other way, or another doubt; inactive = no such curve, though single readings can be large or run the other way. No potency is given beside an inconclusive call; the fits are too rough.
Assay: qHTS for induction of synthetic lethality in tumor cells producing 2HG: qHTS for the HT-1080-IDH1KD cell line;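 for activity, negative = toxicity: 0% = DMSO wells and -100% = cell-free medium wells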
Details: HT-1080 IDH1 knockdown viability, ATP luminescence, 48 h; activity, negative = toxicity: at 46.1 µM (top of the series) unless noted
Method in brief: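 Luminescent ATP read-out (CellTiter-Glo, 10 min at room temperature) after 48 h compound exposure at 37 °C gave viability of IDH1-knockdown HT-1080 cells. Activity was normalised to DMSO and cell-free wells, then fitted as concentration-response curves.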
Potency is the fitted concentration of half-maximal effect; tags give direction and shape of the fitted curve.

Compound | Potency | activity, negative = toxicity
COc1ccc(OCC(O)CN2CCC(CN3C(=O)c4cccc5cccc(c45)C3=O)CC2)cc1 (stereo not given) | inconclusive [cytotoxic, partial curve, poor fit] | 
Cc1ccc(-n2cc(CNCCN3CCOC3=O)c(-c3cccc(C)c3)n2)cc1 | inconclusive [cytotoxic, single point] | 
Cc1c2c(nc3ccccc13)OCC2 | inconclusive [cytotoxic, single point] | 
COC(=O)[C@]12CCCCC=C1N(CCC1=CCCCC1)C(=O)[C@H](CC(=O)NCCCCc1ccccc1)C2 | inconclusive [cytotoxic, single point] | 
Cc1cccc(-n2c(N)c(C(=O)NCCN3CCOCC3)c3nc4ccccc4nc32)c1 | inconclusive [cytotoxic, single point] | 
CCCc1cc(=O)[nH]c(SCC(=O)Nc2ccc(Cl)c(S(=O)(=O)N3CCOCC3)c2)n1 | inactive | 
CC(C)(C)c1ccc(C(=O)N2CCC(C(=O)NCCC3=CCCCC3)CC2)cc1 | inconclusive [cytotoxic, single point] | 
CC(=O)ONC(=Nc1ccccc1)c1nonc1N |  | inconclusive: 33.6%
CC1CC(C)CN(C(=O)CSc2nc(Cc3cccs3)nc3ccccc23)C1 (stereo not given) | inconclusive [cytotoxic, single point] | 
CCOC(=O)c1cn(-c2c(Cl)cccc2Cl)c2cc(Cl)c([N+](=O)[O-])cc2c1=O | inconclusive [cytotoxic, partial curve] | 
COc1ccc(C(=O)Nc2nnc(Cc3cccs3)s2)cc1OC | inconclusive [cytotoxic, full curve] | 
CN(C)c1ccc(-c2csc(C(C)(O)c3ccccc3)n2)cc1 (stereo not given) | inconclusive [cytotoxic, partial curve] | 
CC1(CC(=O)N/N=C/c2ccc(-c3ccc(C(=O)O)cc3)o2)OCCO1 | inconclusive [rising, single point] | 
CCOC(=O)CC1C(=O)NCCN1S(=O)(=O)c1cccc(C(F)(F)F)c1 (stereo not given) | inactive | 
CCOc1cc(CNCCc2ccc(S(N)(=O)=O)cc2)ccc1OCc1ccc(Cl)cc1 | inconclusive [cytotoxic, single point] | 
N#Cc1c(Cl)nsc1NN | inconclusive [cytotoxic, single point] | 
COC(=O)c1ccc(CN(c2ccc(OC)cc2)S(=O)(=O)c2ccccc2)cc1 | inactive | 
COc1cc(CNC(C)(C)CO)cc(Br)c1OCc1ccccc1 | inconclusive [cytotoxic, single point] | 
Cc1ccc(S(=O)(=O)N2CCC(=O)N(C(COCc3cccc(C)c3)Cc3ccccc3)CC2)cc1 (stereo not given) | inactive | 
Cc1ccc(N(Cc2cc(=O)[nH]c3ccccc23)C(=O)CCl)c(C)c1 | active: 5.17 µM | 
COc1ccc(-c2cc([C@H]3[C@H]4C=CC[C@@H](C)[C@@H]4C(=O)N3Cc3ccccc3)ccc2F)cc1 | inconclusive [cytotoxic, single point] | 
O=C(NC1CCCCC1)N(CCN1CCOCC1)Cc1cc2cc3c(cc2[nH]c1=O)OCCO3 | inactive | 
Clc1ccc(-c2nnc(Sc3nc4ccccc4o3)c3ccccc23)cc1 | active: 11.2 µM | 

Compound | Potency | activity, negative = toxicity
Cc1cccc(C)c1N(CC(O)Cn1c2ccccc2c2ccccc21)S(C)(=O)=O (stereo not given) | inconclusive [cytotoxic, single point] | 
CCc1cccc(OCC(=O)Nc2ccc(S(=O)(=O)N3CCCC3)cc2)c1 | inactive | 
Cc1cc(Cl)c2oc(C(=O)N3CCN(c4ccncc4)CC3)c(C)c2c1 | active: 11.6 µM | 
CCOC(=O)c1c(C2COc3ccccc3O2)csc1N (stereo not given) | inconclusive [cytotoxic, single point] | 
COc1ccc(-c2ccc(SCC(=O)NC3CCCC3)nn2)cc1OC | inconclusive [cytotoxic, partial curve] | 
NC(=NCc1ccccc1)NC(=O)c1nc(Cl)c(N)nc1N | inconclusive [cytotoxic, single point] | 
CCCCn1c(N)c(N(CCOC)C(=O)C2CCN(C(=O)c3ccc(F)cc3)CC2)c(=O)[nH]c1=O | inactive | 
Cc1cc(C)cc(N(C(=O)CNC(=O)c2ccco2)C(C(=O)NC2CCCCC2)c2ccncc2)c1 (stereo not given) | inactive | 
Cc1ccc2nsnc2c1NC(=O)c1ccc([N+](=O)[O-])cc1 | inconclusive [cytotoxic, partial curve] | 
Clc1cccc(Cl)c1-c1nnc2ccc(N3CCOCC3)nn12 | inconclusive [cytotoxic, single point] | 
Cn1cc(S(=O)(=O)c2ccccc2)n(C)c1=O | inactive | 
O=C(N/N=C/c1ccc2c(c1)OCO2)c1ccc(Cl)cc1Cl | inconclusive [cytotoxic, single point] | 
COc1ccc(CNCCC2(Cc3ccccc3)CC(C)N(C)CC2C)cc1OC (stereo not given) | inconclusive [cytotoxic, single point] | 
O=C(NCc1ccccn1)C1CCCN(S(=O)(=O)c2cccc3nsnc23)C1 (stereo not given) | inconclusive [cytotoxic, single point] | 
Cc1ccc(NC(=O)Cn2nc(-c3ccccc3)nc2-c2ccccc2)c(C)c1 | inconclusive [cytotoxic, single point] | 
O=C(Cn1nnc(-c2ccccc2)n1)Nc1ccc2c(c1)OCO2 | inactive | 
Cc1ccccc1OCCn1c(S(=O)(=O)O)nc2c(N)ncnc21 | inactive | 
NC(=S)N/N=C1\CCOc2ccc(F)cc21 | inconclusive [cytotoxic, single point] | 
CCN1CCN(C(=O)CN(c2cc(OC)ccc2OC)S(C)(=O)=O)CC1 | inactive | 
Fc1cccc(NC(=S)NCC(c2cccnc2)N2CCOCC2)c1 (stereo not given) | inactive | 
Cc1[nH]nc2nc(SCC(=O)NC3CCCCC3)n(-c3ccc(Br)cc3)c(=N)c12 |  | inconclusive: -17.8% [cytotoxic]
CC1(C)CC(=O)C2=C(C1)c1c(ccc3ccccc13)NC2c1cc([N+](=O)[O-])cc([N+](=O)[O-])c1O (stereo not given) | inconclusive [cytotoxic, single point] | 

Source: PubChem BioAssay AID686971 (National Center for Advancing Translational Sciences (NCATS), 2013)
